# Reference: ChEMBL document CHEMBL4888484, “Replenishing the malaria drug discovery pipeline: Screening and hit evaluation of the MMV Hit Generation Library 1 (HGL1) against asexual blood stage Plasmodium falciparum ,using a nano luciferase reporter read-out” (2022)
# The whole screen tested about 150,000 compounds, of which about 540 (0.36%) showed an effect of 50% or more. The list shows a part of the results.
# Tested on: Plasmodium falciparum
# Assay: Primary screen in NF54 nanoGlo assay, in single point, at 2uM, 72h; a lower Z score goes with more inhibition
# Type: functional, Erythrocyte
# Conditions: timepoint 72 hour
SMILES,% Inhibition [%],Z score
Cc1cnc(C(=O)N2CCc3[nH]c(-c4cn[nH]c4)nc3C2)cn1,-1,0.18
Cn1nccc1COc1ccc(N)cc1F,3,-0.47
CCOC(=O)N1CCN(C(=O)c2snc(-c3ccccn3)c2NC(=O)CC)CC1,-6,0.63
C[C@](O)(CNS(=O)(=O)c1cccs1)c1ccc2c(c1)OCO2,-3,0.56
Cc1nccn1CCCN(C)[C@@H](C)c1nc2ccccc2c(=O)[nH]1,-13,2.45
CCOc1cc(C2Nc3ccc(C)cc3C(OC(C)=O)C2(C)C)ccc1OCc1ccccc1Cl (configuration not stated),6,-1.18
CC(C)=CCN1CC2(CCN(C(=O)c3ncccc3O)CC2)CC1=O,-4,0.45
CCCNC(=O)[C@H]1CCc2ncc(-c3ccc(OC)cc3)n2C1,-9,1.72
CO[C@H]1CCCN(S(=O)(=O)c2ccc3[nH]c(=O)c(C)cc3c2)C1,20,-2.31
CCS(=O)(=O)N1C[C@@H]2CN(C(=O)c3cc(C)on3)C[C@]2(c2nc(C)no2)C1,-6,0.83
O=C(NCc1cnn(CC2CCC2)c1)[C@H]1CCO[C@@H]1c1cccnc1,-4,0.57
Clc1ccc(OCc2ccccc2Cl)c(CNc2ccc(Oc3ccccc3)cc2)c1,35,-3.97
O=C(CN(C[C@H]1CCOC1)C1CC1)Nc1nc2ccccc2s1,-8,1.28
O=C(O)c1cccc2[nH]c(C3CC3)nc12,-6,0.74
CCn1ncnc1CN[C@H]1CC=CC[C@@H]1C(N)=O,-3,0.34
COCCc1noc([C@H](C)NC(=O)c2cnn[nH]2)n1,-9,1.28
CC(=O)Nc1ccc(CN2CC[C@H](c3nc4ccccc4[nH]3)C2)cc1,26,-3.05
Cc1cc2nc(-c3cccs3)cc(C(=O)N3CCC[C@H](C)C3)c2cc1C,-8,1.14
CCN(CC)C(=O)c1cc(C(C)(C)C)n2nc(C)nc2n1,-15,2.1
COc1cc(OC)cc(-c2nc(-c3cccc(-c4ccnn4C)c3)no2)c1,-7,0.83
CCn1nccc1CN(C)CCc1scnc1C,-3,0.63
COCCc1nnc(C2CCN(Cc3ccco3)CC2)[nH]1,0,-0.07

SMILES,% Inhibition [%],Z score
CN(CC(O)C(F)(F)F)S(=O)(=O)CC1CCCO1 (configuration not stated),-3,0.4
C[C@H](NS(=O)(=O)c1ccc(F)cc1F)c1cc(F)ccc1N1CCN(C)CC1,-1,0.1
Cc1ccc(C(=O)N2CC[C@H](c3nc(N(C)C)ncc3C(=O)NC(C)C)C2)cn1,-3,0.38
COCC(=O)N[C@@H]1CN(Cc2ccc(C)s2)CC[C@@H]1CO,3,-0.58
O=S(=O)(NC1C2CCC(C2)C1CO)c1cccc2c1N=S=N2 (configuration not stated),5,-0.9
CCc1[nH]nc(N[C@@H](C)C2CCOCC2)c1C,-4,0.61
O=C(NCc1ccccc1)c1cc(NC2CCC(O)CC2)ccn1 (configuration not stated),31,-3.5
N#Cc1cccc(CN2CCC[C@H](c3nnc(C4CC4)[nH]3)C2)c1,-5,0.55
COCCn1cc(S(=O)(=O)N(Cc2ccccc2)Cc2ccccc2)ccc1=O,-2,0.47
CC(C(=O)Nc1nccs1)N1CCCC(c2ccn[nH]2)C1 (configuration not stated),50,-9.08
C[C@@H](C1CC1)n1nccc1NCc1ccc(Cl)cc1,34,-3.85
Cc1nnsc1C(=O)Nc1nn(C)c2c1C[C@H](C)C(=O)N2,16,-2.08
CC(C)(C)OC(=O)NC[C@H](NC1CCOCC1)C1CCCC1,-1,0.17
Brc1ccc(OCCN2CCCN3CCC[C@H]3C2)cc1,-12,2.28
C[C@@H](CS(C)(=O)=O)C(=O)N(C)CC1CCCCCCC1,1,-0.12
CC(C)c1nc(CNC[C@]2(c3ccccc3)CC2(C)C)co1,-15,1.87
O=C(NCCN1CCOCC1)c1ccccc1NC(=O)c1cnoc1C1CC1,-14,1.8
C=CC[C@]1(C(=O)O)CCCN(Cc2c(C)n[nH]c2C)C1,5,-1.04
Cc1cc(=O)n(Cc2nc3c(cnn3C)c(=O)[nH]2)cc1C(F)(F)F,6,-0.73
O=c1ccncn1CC1CCN(c2ncnc3c2CCC3)CC1,-1,0.13
CC(C)c1cncnc1NCc1cccnc1Oc1ccc(F)c(F)c1,-2,0.43
O=C1CCCc2cc(C(=O)NCCCn3nc4ccccn4c3=O)ccc2N1,2,-0.18

SMILES,% Inhibition [%],Z score
Cc1oc(Br)cc1C(=O)NC1(C)CCOC1C1CC1 (configuration not stated),-5,0.58
COc1cc2c(N3CCC([C@H](O)C(=O)NC4CC4)CC3)ccnc2cc1F,-6,0.61
CCCC[C@H](Oc1ccc(C(C)(C)CC)cc1C(C)(C)CC)C(=O)Nc1ccc(NC(=O)C(F)(F)C(F)(F)C(F)(F)F)c(O)c1,39,-4.52
N#Cc1ccc(CN2CCC(NC(=O)C[C@@H]3NC(=O)c4ccccc4NC3=O)CC2)cc1,-4,0.47
CCn1nc(C)c2c1c(=O)n(Cc1ccco1)c(=O)n2CC(=O)NC1CCCC1,5,-0.45
COc1cc(F)c(CN2C[C@@H](CN3CCCCC3)[C@@H](CO)C2)cc1OC,-7,1.2
O=C(c1cc(C2CC2)n[nH]1)N1CC[C@@]2(CCCN(CC3CCC3)C2=O)C1,-11,1.83
CCCN1C(=O)c2cc(C(=O)Nc3ccc(C)c(F)c3)ccc2[C@H]1Nc1ccc(C)c(F)c1,-2,0.29
Cc1nnnn1CCC(=O)NCCc1noc(C(F)(F)F)n1,-5,1.01
N#Cc1nc(C2CC2)oc1N1CCN(C(=O)c2csnn2)CC1,-4,0.49
CN1CCN(Cc2cccnc2)c2ccccc21,4,-0.5
CC1CCC(C(=O)O)C(C)N1Cc1noc(C2CCC2)n1 (configuration not stated),-2,0.34
CCn1nc(C)c(CNc2nc3c(s2)c(C)nn3C)c1C,6,-1.13
N[C@H]1CCCN(C(=O)c2ccc3ncccc3c2)C1,-13,1.87
Cc1cccc(NC(=O)N2CCCN(c3nc4cc(Cl)ccc4n4cccc34)CC2)c1C,-9,1.31
Cc1cccc(C(=O)N2CCC3(CCCC3)C2)c1F,-13,1.39
CC(C)N1C2CCC1CN(C(=O)c1ccccc1-n1cnnn1)CC2 (configuration not stated),-6,0.61
CO[C@@](F)(C(=O)Nc1ccc(OC(F)(F)Cl)cc1)C(F)(F)F,-9,1.15
Cc1nccc(NC(=O)C2(S(C)(=O)=O)CCCC2)c1Cl,-3,0.46
CN(Cc1ccncc1)C[C@@H]1CC=CCC1,0,0.05
CC(NCc1ccccc1)C1Cc2ccccc21 (configuration not stated),7,-1.3
CC(C)(NC(=O)C1CCN(c2ccc3nncn3n2)CC1)c1cccs1,-3,0.37

SMILES,% Inhibition [%],Z score
COCCN1C(=O)CN(S(=O)(=O)c2ccccc2)C[C@@]1(C)C(=O)NCc1ccc(F)cc1,-3,0.44
COc1cc(C(=O)NC2(c3ccccc3)COC2)sn1,-1,0.26
CCN(CC)CCOc1cc(Cl)ccc1Cl,8,-1.08
CC1(C)Cc2nc(C(C)(C)C)ncc2[C@@H](NCC2CC2)C1,3,-0.32
CCn1cc(CN(C)CCc2ccccn2)cn1,-7,0.86
COc1ccc(CC(=O)NCc2csc(C)n2)cc1,13,-1.51
Cc1csc([C@@H](C)CNC(=O)NCc2ccc(C#N)cc2F)n1,-11,1.16
Cc1cc(F)ccc1N1CCCC(N2CCCC(C(=O)O)C2)C1=O (configuration not stated),-8,1.21
O=C(CC[C@H]1CCCN(C(=O)c2n[nH]c3c2CCC3)C1)N1CCN(c2ccccn2)CC1,-16,2.11
CCOc1ncccc1-c1ccnn1C(C)C,-19,2.42
Cc1noc(C)c1CN1CCOCS1(=O)=O,-9,1.71
CC(C)c1ccc(C(=O)N2CCC[C@@]3(CCCO3)CC2)c(=O)[nH]1,-1,0.18
CC(=O)c1cccc(NC(=O)Cc2c(C)nc3nc(C4CCCCC4)nn3c2C)c1,42,-4.76
CN(CC1(O)CCCC1)C(=O)c1cc(Cl)cc(F)c1N,2,-0.36
CC(C)CN(C(=O)c1cncc(Br)c1)C(C)C,6,-1.19
CCN1CCN(CCC(=O)N[C@@H](C)c2ccc(Cl)s2)CC1,4,-0.43
Cc1ccc(CNC(=O)c2cccc(Oc3cc(-c4ccc(F)cc4)ncn3)c2)cc1,-4,0.47
O=S1(=O)C=C(N2CCN(C3CCCCC3)CC2)c2ccccc21,-28,3.29
CC(C)NC(=O)COC(=O)c1cc(F)ccc1Cl,28,-3.79
CC(C)c1[nH]ncc1C(=O)NC(C)C1CCN(Cc2ccccc2)C1 (configuration not stated),2,-0.29
